From PMC4336329 (PLoS ONE, 2015)
In all, about 310,000 compounds went through this assay and about 14,000 (4.5%) showed an effect of 50% or more. The effect is printed as a negative number. This is one part of the list.

Target: human ether-à-go-go-related gene (hERG) potassium channel (human, UniProt Q12809)
Experiment: primary screen, population patch clamp on CHO cells stably expressing hERG
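Note: peak tail current of the secondary pulse compared with the same well before compound.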

human ether-à-go-go-related gene (hERG) potassium channel, sequence (Q12809 whole entry, looked up): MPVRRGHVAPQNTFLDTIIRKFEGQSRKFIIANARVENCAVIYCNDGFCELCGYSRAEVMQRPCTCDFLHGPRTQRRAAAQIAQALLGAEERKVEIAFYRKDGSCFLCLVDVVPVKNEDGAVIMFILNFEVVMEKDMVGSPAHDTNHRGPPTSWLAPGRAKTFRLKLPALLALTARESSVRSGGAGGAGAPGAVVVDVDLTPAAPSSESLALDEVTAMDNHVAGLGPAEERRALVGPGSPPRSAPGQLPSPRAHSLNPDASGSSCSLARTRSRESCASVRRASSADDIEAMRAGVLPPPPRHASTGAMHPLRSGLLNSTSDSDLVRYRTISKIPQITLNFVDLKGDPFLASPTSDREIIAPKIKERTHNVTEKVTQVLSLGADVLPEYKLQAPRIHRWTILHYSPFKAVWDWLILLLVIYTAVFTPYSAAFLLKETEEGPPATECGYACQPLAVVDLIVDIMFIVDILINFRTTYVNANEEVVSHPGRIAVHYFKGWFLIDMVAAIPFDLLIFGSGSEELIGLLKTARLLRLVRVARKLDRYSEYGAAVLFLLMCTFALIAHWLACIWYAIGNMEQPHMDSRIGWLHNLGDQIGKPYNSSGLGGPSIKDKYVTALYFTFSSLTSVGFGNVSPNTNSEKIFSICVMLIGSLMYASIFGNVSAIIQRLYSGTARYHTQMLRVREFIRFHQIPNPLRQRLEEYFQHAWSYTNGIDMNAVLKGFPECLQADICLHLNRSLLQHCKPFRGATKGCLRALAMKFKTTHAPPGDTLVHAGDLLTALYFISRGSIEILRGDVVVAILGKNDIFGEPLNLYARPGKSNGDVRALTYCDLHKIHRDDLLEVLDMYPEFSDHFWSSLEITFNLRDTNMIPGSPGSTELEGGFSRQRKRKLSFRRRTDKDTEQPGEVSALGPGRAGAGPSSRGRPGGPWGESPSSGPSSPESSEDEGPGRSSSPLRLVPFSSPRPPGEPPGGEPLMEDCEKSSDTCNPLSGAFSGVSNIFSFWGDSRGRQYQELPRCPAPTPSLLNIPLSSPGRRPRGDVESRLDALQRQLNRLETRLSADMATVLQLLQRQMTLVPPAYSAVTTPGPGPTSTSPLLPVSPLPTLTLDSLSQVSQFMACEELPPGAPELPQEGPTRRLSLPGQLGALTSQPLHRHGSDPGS

SMILES | hERG current change (%, negative = inhibition) at 10uM [%]
CC(C)(C)c1ccc(C(=O)Nc2cccnc2)cc1 | -18.7
COCCOC(=O)C1=C(C)NC(=O)NC1c1ccc(-c2ccc(F)cc2)o1 (centres unmarked) | 3.95
Cc1cc(C)nc(N/N=C/c2cc(Br)ccc2O)n1 | 17.4
O=C(CCN1C(=O)C2C3CCC(C3)C2C1=O)Nc1ccc([N+](=O)[O-])cc1 (centres unmarked) | -32.8
CSc1ccc(Cl)c(C(=O)OCC(=O)NCc2ccco2)c1 | 3.4
CC(=O)c1ccc(-c2ccc(C(=O)NCC(c3ccc(F)cc3)N3CCOCC3)o2)cc1 (centres unmarked) | -38.8
O=C(O)Cn1c(-c2ccccc2)cc2ccccc21 | 14.1
Cc1cc(C(F)(F)F)n2nc(-c3sccc3-n3cccc3)cc2n1 | 6.05
CCOC(=O)C1CCN(C(=O)CCCN2C(=O)c3ccccc3C2=O)CC1 | -13.5
CCOC(=O)CN(C(=O)COc1nc(-c2ccccc2)cc(C)c1C#N)c1ccccc1 | 15.9
COc1ccc(Cl)cc1NC(=O)NC(C)C | 11.8
NC(=O)C1CCN(CCC(=O)Nc2cccc(Cl)c2)CC1 | 0.151
C1=C(c2c[nH]c3ccccc23)CCN(Cc2ccccc2)C1 | -49.2
CC(C)(C)NS(=O)(=O)c1ccc2[nH]c3c(c2c1)CCCCC3 | 7.24
O=C(CNC(=O)c1ccc(Br)o1)NC1CCCCC1 | 19.8
Cc1ccc(C(=O)NCCN2C3=NC[C@H](C)N3C[C@H]2Cc2ccc(O)cc2)cc1Br | -8.85
Cc1onc(-c2ccccc2)c1C(=O)OCCOc1ccc([N+](=O)[O-])cc1[N+](=O)[O-] | -17.9
CCCc1ccc2oc(C(=O)N(Cc3nccn3C)C(C)C)c(C)c2c1 | -48.4
Cc1c(NC(=O)COC(=O)Cc2ccc(Cl)cc2)c(=O)n(-c2ccccc2)n1C | -1.5
CCOC(=O)C(Cc1c(F)cccc1Cl)c1ccno1 (centres unmarked) | 9.08
O=C(O)c1cccc2cccnc12 | 3.37
CCCc1cc(=O)oc2cc(C)cc(OC(C)C(=O)NCCCN3CCOCC3)c12 (centres unmarked) | -5.19

SMILES | hERG current change (%, negative = inhibition) at 10uM [%]
C/C(N)=C(/C#N)C(=O)CSc1nc2ccccc2[nH]1 | -7.3
COc1cccc(N2CCN(c3nc(-c4ccccc4C)cc(=O)[nH]3)CC2)c1 | 3.88
Cc1ccc(O)c(C(=O)CC(=O)c2ccc(Cl)cc2)c1 | 24.5
C#CCOCCOCCOCCNc1nc(N2CCOCC2)nc(N2CCN(C(=O)Cn3cc(CCC[NH+]=C(N)N)nn3)CC2)n1.[Cl-] | 19.2
O=[N+]([O-])c1ccc2nn(Cc3ccccc3)cc2c1 | -18.2
O=C(NCC1CCCO1)c1cc2ccccc2oc1=O (centres unmarked) | 9.43
CCOC(=O)C1=C(Nc2ccccc2)CC(C)(O)C(C(=O)OCC)C1c1ccc(Cl)cc1 (centres unmarked) | 10.7
C=C(C)CNC(=S)Nc1ccc(S(=O)(=O)Nc2cnc3ccccc3n2)cc1 | 8.21
Cc1cccc(Nc2c([N+](=O)[O-])ccc3nonc23)c1 | 32.4
O=[N+]([O-])c1ccc(Sc2cccc3cccnc23)c([N+](=O)[O-])c1 | 16.6
Cc1c(NC(=O)c2cc(-c3ccc(Cl)cc3)on2)c(=O)n(-c2ccccc2)n1C | -55.1
CC(=NCCN1CCOCC1)C1=C(O)c2ccccc2C1=O | 7.99
O=c1[nH]c2c(s1)C(c1ccco1)C1C3CCC(C3)C1S2 (centres unmarked) | 5.92
Cc1c(C(=O)NC2CC(=O)N(c3ccc4c(c3)OCCO4)C2)cccc1[N+](=O)[O-] (centres unmarked) | 0.354
Cl.Nc1ccc(N2CCN(CCCCN3C(=O)C4CCCN4C3=O)CC2)cc1.O (centres unmarked) | -9.33
Cl.OCCN1CCN(CC(O)COCC2COc3ccccc3O2)CC1 (centres unmarked) | 33.4
CCOc1ccc(Nc2nc(N)nc(CN(C)C3CCCCC3)n2)cc1 | -71.5
Cc1nc(-c2cccc(S(=O)(=O)N3CCOCC3)c2)cs1 | -2.11
CC(=O)Nc1ccc(NC(=O)c2c(C)noc2C)cc1 | 22.4
CCOC(=O)c1c(N)c(C#N)c2n1CCCC2 | -10.3
CNC(=O)c1ccsc1NC(=O)C1CCCN1S(=O)(=O)c1cccs1 (centres unmarked) | 7.6
CCOC(=O)C1Cn2c(nc3c(c2=O)C(C)(C)Cc2ccccc2-3)S1 (centres unmarked) | -0.972
